# Experimental data taken from the supplement of paper PMC7335073.
# Over roughly 4,100 sequences, “relative CpG methylation activity (normalised to average over all NNNCGNNN flanks)” has its median near 0.94; the highest 2% begin near 1.9. Some of the results follow.
# Molecular target: DNMT3B catalytic domain (mouse) (UniProt O88509)
# Experiment: relative CpG methylation activity (normalised to average over all NNNCGNNN flanks) (relative (1 = mean)); higher = more methylation of the central CpG
# Details: system: in vitro, murine catalytic domain; CpG state: hemimethylated substrate pool; residues: 558-859
# Procedure: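 Deep enzymology: a pool of dsDNA substrates with a central CpG flanked by 10 random nucleotides on each side was methylated by the murine DNMT3A or DNMT3B catalytic domain (0.8 mM SAM, 37 °C, 60 min). Methylation was then read out by hairpin ligation, bisulfite conversion and NGS. Values are the average methylation of each NNNCGNNN context (±3 flanks; the outer flanks are random and averaged over), normalised to the overall mean, so 1 = average activity.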
# Sequence of UniProt O88509 (O88509 558-859): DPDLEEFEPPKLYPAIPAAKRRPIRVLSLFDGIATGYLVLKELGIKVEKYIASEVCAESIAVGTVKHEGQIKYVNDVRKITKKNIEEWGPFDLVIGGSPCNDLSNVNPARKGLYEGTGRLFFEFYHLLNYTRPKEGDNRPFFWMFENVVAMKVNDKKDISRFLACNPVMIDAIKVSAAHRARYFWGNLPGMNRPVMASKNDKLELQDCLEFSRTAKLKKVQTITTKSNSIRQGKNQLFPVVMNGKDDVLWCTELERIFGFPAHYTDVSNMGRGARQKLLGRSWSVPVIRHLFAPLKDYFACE
row,Sequence,relative CpG methylation activity
1,GATCGGTG,1.14
2,CCTCGCTA,0.769
3,ACCCGTTA,0.355
4,AAGCGCTG,0.58
5,TCGCGACC,0.905
6,AGTCGGGA,1.53
7,AATCGGTC,1.53
8,TACCGGGG,0.804
9,TGACGCTA,0.63
10,ACCCGTCC,1.09
11,CCTCGATC,1.57
12,AAGCGCGC,0.503
13,TCGCGAGC,1.28
14,ACGCGCTG,0.784
15,CCACGGTA,1.37
16,AAACGTTT,0.761
17,TCCCGGTT,1.35
18,CTACGAGT,1.96
19,CATCGAAA,1.69
20,ACTCGATA,1.57
21,TTCCGCCA,1.2
22,CTACGTCA,1.82
23,CGCCGAAG,0.934
24,ACTCGCGA,0.391
25,CTACGGAG,1.52

row,Sequence,relative CpG methylation activity
1,CTCCGATT,1.69
2,ATGCGCCC,1.01
3,GCGCGCTC,0.774
4,ATGCGTGA,0.463
5,CGCCGTAA,0.156
6,TCACGAAT,1.39
7,TACCGGTT,1.02
8,CAGCGAGC,1.41
9,GAACGCTC,1.34
10,CTACGTTC,1.23
11,TTCCGCTC,1.27
12,CCCCGGAC,1.22
13,CAACGGAG,1.04
14,ATTCGCAT,0.486
15,GTGCGCAA,0.688
16,ATTCGATT,1.69
17,CGTCGTGA,0.256
18,AATCGATC,1.49
19,GTACGCGC,1.62
20,TGCCGACC,0.967
21,ACACGTAA,0.802
22,TTACGATT,2.01
23,AAACGACG,1.42
24,GGACGCCG,1.1
25,TGCCGATC,1.3

row,Sequence,relative CpG methylation activity
1,CACCGTTG,0.195
2,GCGCGTCA,0.557
3,TATCGTGT,0.189
4,TCCCGATT,1.46
5,ACTCGATT,1.52
6,ATGCGACC,1.14
7,ACGCGACA,0.917
8,ACGCGACT,1.12
9,GCGCGTCG,0.645
10,GAGCGTTC,0.748
11,CTCCGGGG,1.56
12,CTGCGAAT,0.954
13,GCCCGCCG,0.794
14,GTTCGCCG,0.978
15,GCGCGGCC,1.19
16,AACCGGAA,0.489
17,CCGCGTCG,0.711
18,GGGCGTCA,0.385
19,CTTCGTCT,0.992
20,AGTCGAAC,1.34
21,TGGCGTCT,0.488
22,GCCCGTTC,0.786
23,TCTCGATG,1.13
24,CGCCGGGG,0.825
25,ATTCGTCC,0.914

row,Sequence,relative CpG methylation activity
1,GCCCGACG,1.16
2,GTCCGTAA,0.521
3,ATTCGTGC,0.671
4,CATCGAAG,1.16
5,GAACGATC,1.71
6,CGTCGAGG,1.27
7,TCTCGTAT,0.505
8,TGCCGTGC,0.41
9,GAACGAAT,1.45
10,TCGCGTGT,0.272
11,CGTCGTGC,0.639
12,TCCCGTGA,0.497
13,TCGCGATA,1.34
14,TGACGATA,1.32
15,GGCCGTAA,0.188
16,CGTCGGTC,1.47
17,TTTCGAAG,1.54
18,AACCGAAA,0.932
19,TACCGGTA,1.11
20,CGACGACT,0.873
21,AGACGATA,1.67
22,TGGCGTGC,0.174
23,ATACGCAT,1.26
24,TCACGGGG,1.37
25,GACCGGAG,0.548

row,Sequence,relative CpG methylation activity
1,AGACGTGT,0.652
2,ATACGGCA,2.11
3,ACCCGATT,1.41
4,CCGCGCTA,0.71
5,TTTCGCAC,0.941
6,CAACGTGG,0.677
7,GTTCGAGG,1.32
8,GAGCGGAC,0.583
9,TACCGTTA,0.286
10,TACCGACG,1.21
11,ACACGCTA,1.07
12,CTCCGTAC,1.58
13,GCGCGAAC,1.13
14,CTACGCCC,1.87
15,TAACGACA,1.33
16,CTCCGCAT,0.91
17,GGCCGGCG,0.897
18,AATCGAAC,1.47
19,CTTCGAAC,1.98
20,CCGCGACT,0.98
21,TGACGAAT,1.17
22,GGGCGGCT,0.777
23,TACCGGAC,0.739
24,AGACGCGG,1.03
25,GCGCGACA,0.777

row,Sequence,relative CpG methylation activity
1,GATCGTCC,0.775
2,GTGCGTAT,0.76
3,TTTCGTTT,0.781
4,CCGCGTGG,0.387
5,TTTCGGCC,1.65
6,TCCCGTTT,0.489
7,CATCGGTT,1.34
8,CTACGCCA,1.78
9,CAACGGGC,1.82
10,AAACGGAG,0.828
11,TTACGTAA,1.15
12,AGCCGTAC,0.381
13,GCACGCAT,0.786
14,AGCCGACT,0.736
15,CTGCGGTG,1.14
16,AGCCGGTT,0.481
17,TATCGATG,1.71
18,CGTCGAAT,1.35
19,TCACGTCA,1.11
20,GCGCGCAT,0.495
21,CCGCGGTC,1.43
22,GGGCGTGA,0.157
23,GGGCGTAT,0.545
24,ATCCGTGT,0.477
25,ACTCGAAG,0.938

row,Sequence,relative CpG methylation activity
1,TTACGTCA,1.59
2,ACCCGCGT,0.44
3,TTGCGTTC,0.96
4,TATCGTAT,0.351
5,AAGCGGTT,0.724
6,TAGCGCGA,0.272
7,CATCGAGT,1.5
8,TTTCGTAC,1.4
9,CCCCGAGT,1.79
10,AGTCGTGG,0.341
11,TGGCGCCC,0.691
12,TGTCGCAG,0.408
13,GTACGGTG,1.48
14,AGCCGATA,1.09
15,ATTCGTGA,0.279
16,GCACGAAA,1.55
17,TTACGTCC,1.93
18,CAACGCAT,0.973
19,TTTCGTAG,0.862
20,TCCCGGTA,1.34
21,AAACGCTT,1.17
22,GTACGACT,1.46
23,ATCCGCCG,0.929
24,AAGCGTGT,0.216
25,TCTCGGAC,0.926

row,Sequence,relative CpG methylation activity
1,GGCCGTGC,0.358
2,TAGCGTGG,0.258
3,CCGCGCAG,0.423
4,GTCCGGAT,1.08
5,ATTCGCGC,0.947
6,TTTCGAAT,1.49
7,GACCGATC,1.45
8,GAACGCAG,0.706
9,GAACGGTC,1.59
10,GCCCGCAT,0.526
11,TCCCGGAG,0.833
12,GGTCGAAT,0.687
13,CATCGGGT,1.25
14,TATCGCCA,0.791
15,TATCGACA,1.35
16,CTACGCCG,1.71
17,TGCCGCCC,0.54
18,CCCCGGAT,1.03
19,TCGCGCAG,0.504
20,AGACGAAA,1.21
21,AAGCGAAT,0.703
22,CCTCGGGA,1.54
23,TCTCGCGA,0.666
24,GCGCGCTA,0.519
25,CACCGTCA,0.471

row,Sequence,relative CpG methylation activity
1,GGTCGAAC,1.11
2,GTACGTCT,1.25
3,GTACGGAT,1.48
4,ACACGATT,1.73
5,ATGCGAGC,1.55
6,TATCGACT,1.61
7,GCACGTAC,1.19
8,TCCCGTAG,0.445
9,GAACGGCA,1.84
10,ATTCGGCA,1.86
11,AAGCGTCA,0.495
12,GGCCGCCC,0.29
13,CCGCGAGA,1.34
14,GAGCGCAA,0.386
15,GTCCGGTT,1.47
16,TAGCGGAT,0.718
17,GAGCGGCT,1.13
18,TCGCGGAG,0.754
19,GTGCGGGT,1.3
20,TATCGTGA,0.224
21,ACCCGTGT,0.42
22,GCCCGGCG,1.55
23,ATGCGGTC,1.57
24,GTACGTAA,0.995
25,GTACGGGT,1.85

row,Sequence,relative CpG methylation activity
1,TGGCGCTT,0.368
2,TACCGCTC,0.833
3,TTGCGGGT,1.43
4,CCTCGCAT,0.611
5,TGCCGGAC,0.65
6,GCGCGATC,1.23
7,CAGCGCCT,0.884
8,GTGCGGCC,1.04
9,AGGCGTCC,0.475
10,AAGCGAAG,0.431
11,TACCGGAG,0.505
12,TGACGCCA,1.07
13,GGGCGGAT,0.147
14,GCTCGCCT,0.739
15,TACCGCCA,0.619
16,GGTCGGCC,1.57
17,ATGCGTAC,0.865
18,TTTCGGCA,1.69
19,CGCCGAAC,1.04
20,ATTCGACC,1.48
21,AAACGATT,1.73
22,CAGCGAGG,0.679
23,TATCGTCG,0.711
24,GATCGAAG,0.884
25,GAGCGCTA,0.566

row,Sequence,relative CpG methylation activity
1,ATGCGAGT,0.909
2,GACCGTCC,0.676
3,CCACGCGG,0.807
4,GATCGCTT,0.747
5,ACTCGTGC,0.576
6,AGTCGGCG,1.55
7,ACTCGCCT,0.821
8,GGACGCAC,0.71
9,CAGCGAAT,0.681
10,ACACGAAT,1.42
11,GGTCGCGA,0.143
12,GGTCGTGG,0.302
13,TCGCGCTT,0.749
14,TAGCGACA,0.768
15,ACACGATG,1.42
16,ACCCGAGG,1.57
17,GCCCGAGT,1.45
18,TTGCGGGG,1.09
19,GAGCGACC,0.806
20,AAACGGTA,1.52
21,TGGCGTCC,0.637
22,TCACGCGT,1.03
23,GGTCGGGG,0.992
24,GGACGCGA,0.585
25,GAGCGAGA,0.772

row,Sequence,relative CpG methylation activity
1,GAACGCAT,0.939
2,CGCCGATA,1.14
3,GATCGTAG,0.252
4,GAGCGACG,0.449
5,AGGCGACC,0.788
6,CAACGCAA,0.772
7,CGTCGTCC,0.711
8,AGGCGTAT,0.55
9,ATTCGGCG,1.77
10,AGGCGAGC,1.03
11,CACCGACG,1.08
12,TAGCGTGC,0.453
13,CTTCGCCC,1.36
14,CCCCGACT,1.33
15,CCACGGTG,1.26
16,GTACGGCA,1.9
17,CAACGGAA,1.23
18,TAGCGACT,0.872
19,GTCCGGCA,1.75
20,GTGCGACA,1.22
21,CGGCGCAG,0.389
22,TAGCGAGG,1.1
23,CCCCGCCC,1.18
24,TGGCGCAC,0.391
25,GATCGTCG,0.307

row,Sequence,relative CpG methylation activity
1,CAACGGGT,1.31
2,AGTCGGAC,0.688
3,GAGCGCTC,0.931
4,GTCCGATC,1.77
5,CATCGCTC,0.899
6,GATCGTTC,0.514
7,CGCCGTTG,0.16
8,TAACGGTA,1.43
9,AACCGTCA,0.375
10,GTCCGACT,1.32
11,TACCGTCG,0.394
12,GCCCGGGG,1.47
13,CGGCGCCT,0.501
14,CTCCGATA,1.72
15,TCTCGTGG,0.258
16,ACTCGAAC,1.52
17,GGCCGACT,0.91
18,AGTCGTCC,0.747
19,CACCGTTC,0.738
20,CCTCGCCT,1.09
21,TCTCGGGT,1.12
22,AATCGTTA,0.41
23,ATTCGAAA,1.39
24,GAACGGCT,1.81
25,CCGCGGTG,0.786

row,Sequence,relative CpG methylation activity
1,TGACGAGT,1.21
2,AATCGACG,1.13
3,GATCGAAT,1.25
4,TTACGAGG,1.8
5,CGACGACA,1.04
6,TAGCGTTG,0.475
7,TCCCGGGT,1.03
8,TCGCGCCG,0.635
9,CAACGACT,1.61
10,GGTCGGCT,1.34
11,ACTCGCTT,0.73
12,CTGCGGTC,1.14
13,TGACGCCC,1.15
14,TGCCGATG,0.821
15,TTACGGTA,2.02
16,CCACGGCT,1.89
17,GCGCGGAC,0.712
18,AGACGGAA,0.982
19,TCACGTTA,0.705
